Experimental data published in the supplement of paper PMC11876631.
± gives the standard deviation of the averaged measurements. Laboratory Escherichia coli strains with one amino-acid change in an essential protein, pooled on minimal glucose agar with carbenicillin or gentamicin at twice the control MIC (plus kanamycin and chloramphenicol for the plasmids), 48 h. Fold change of barcode share against drug-free plates; higher = less susceptible. Active = above 20 in both replicates (the paper's putatively resistant). '<' = one read or none on drug, '>' = one read or none on a drug-free plate. Shares are relative, so most strains fall below 1 when a few take over. Listed are strains with at least 15 reads on both drug-free plates, and hits; most hits rest on fewer reference reads. Replicate rank correlation about 0.5. Edits are read from barcodes.

B1: leuA I254P (protein)
chain: MSQQVIIFDTTLRDGEQALQASLSVKEKLQIALALERMGVDVMEVGFPVSSPGDFESVQTIARQVKNSRVCALARCVEKDIDVAAESLKVAEAFRIHTFIATSPMHIATKLRSTLDEVIERAIYMVKRARNYTDDVEFSCEDAGRTPIADLARVVEAAINAGATTINIPDTVGYTMPFEFAGIISGLYERVPNIDKAIISVHTHDDLGLAVGNSLAAVHAGARQVEGAMNGIGERAGNCSLEEVIMAIKVRKDPLNVHTAINHQEIWRTSQLVSQICNMPIPANKAIVGSGAFAHSSGIHQDGVLKNRENYEIMTPESIGLNQIQLNLTSRSGRAAVKHRMDEMGYKESEYNLDNLYDAFLKLADKKGQVFDYDLEALAFIGKQQEEPEHFRLDYFSVQSGSNDIATAAVKLACGEEVKAEAANGNGPVDAVYQAINRITEYNVELVKYSLTAKGHGKDALGQVDIVANYNGRRFHGVGLATDIVESSAKAMVHVLNNIWRAAEVEKELQRKAQHNENNKETV
B2: aroA L352Q (protein)
chain: MESLTLQPIARVDGTINLPGSKSVSNRALLLAALAHGKTVLTNLLDSDDVRHMLNALTALGVSYTLSADRTRCEIIGNGGPLHAEGALELFLGNAGTAMRPLAAALCLGSNDIVLTGEPRMKERPIGHLVDALRLGGAKITYLEQENYPPLRLQGGFTGGNVDVDGSVSSQFLTALLMTAPLAPEDTVIRIKGDLVSKPYIDITLNLMKTFGVEIENQHYQQFVVKGGQSYQSPGTYLVEGDASSASYFLAAAAIKGGTVKVTGIGRNSMQGDIRFADVLEKMGATICWGDDYISCTRGELNAIDMDMNHIPDAAMTIATAALFAKGTTTLRNIYNWRVKETDRLFAMATEQRKVGAEVEEGHDYIRITPPEKLNFAEIATYNDHRMAMCFSLVALSDTPVTILDPKCTAKTFPDYFEQLARISQAA
B3: aroA L352P (protein)
chain: MESLTLQPIARVDGTINLPGSKSVSNRALLLAALAHGKTVLTNLLDSDDVRHMLNALTALGVSYTLSADRTRCEIIGNGGPLHAEGALELFLGNAGTAMRPLAAALCLGSNDIVLTGEPRMKERPIGHLVDALRLGGAKITYLEQENYPPLRLQGGFTGGNVDVDGSVSSQFLTALLMTAPLAPEDTVIRIKGDLVSKPYIDITLNLMKTFGVEIENQHYQQFVVKGGQSYQSPGTYLVEGDASSASYFLAAAAIKGGTVKVTGIGRNSMQGDIRFADVLEKMGATICWGDDYISCTRGELNAIDMDMNHIPDAAMTIATAALFAKGTTTLRNIYNWRVKETDRLFAMATEPRKVGAEVEEGHDYIRITPPEKLNFAEIATYNDHRMAMCFSLVALSDTPVTILDPKCTAKTFPDYFEQLARISQAA
B4: aroB V164W (protein)
chain: MERIVVTLGERSYPITIASGLFNEPASFLPLKSGEQVMLVTNETLAPLYLDKVRGVLEQAGVNVDSVILPDGEQYKSLAVLDTVFTALLQKPHGRDTTLVALGGGVVGDLTGFAAASYQRGVRFIQVPTTLLSQVDSSVGGKTAVNHPLGKNMIGAFYQPASVWVDLDCLKTLPPRELASGLAEVIKYGIILDGAFFNWLEENLDALLRLDGPAMAYCIRRCCELKAEVVAADERETGLRALLNLGHTFGHAIEAEMGYGNWLHGEAVAAGMVMAARTSERLGQFSSAETQRIITLLKRAGLPVNGPREMSAQAYLPHMLRDKKVLAGEMRLILPLAIGKSEVRSGVSHELVLNAIADCQSA
B5: leuC V32A (protein)
chain: MAKTLYEKLFDAHVVYEAENETPLLYIDRHLAHEVTSPQAFDGLRAHGRPVRQPGKTFATMDHNVSTQTKDINACGEMARIQMQELIKNCKEFGVELYDLNHPYQGIVHVMGPEQGVTLPGMTIVCGDSHTATHGAFGALAFGIGTSEVEHVLATQTLKQGRAKTMKIEVQGKAAPGITAKDIVLAIIGKTGSAGGTGHVVEFCGEAIRDLSMEGRMTLCNMAIEMGAKAGLVAPDETTFNYVKGRLHAPKGKDFDDAVAYWKTLQTDEGATFDTVVTLQAEEISPQVTWGTNPGQVISVNDNIPDPASFADPVERASAEKALAYMGLKPGIPLTEVAIDKVFIGSCTNSRIEDLRAAAEIAKGRKVAPGVQALVVPGSGPVKAQAEAEGLDKIFIEAGFEWRLPGCSMCLAMNNDRLNPGERCASTSNRNFEGRQGRGGRTHLVSPAMAAAAAVTGHFADIRNIK
B6: leuC V32Q (protein)
chain: MAKTLYEKLFDAHVVYEAENETPLLYIDRHLQHEVTSPQAFDGLRAHGRPVRQPGKTFATMDHNVSTQTKDINACGEMARIQMQELIKNCKEFGVELYDLNHPYQGIVHVMGPEQGVTLPGMTIVCGDSHTATHGAFGALAFGIGTSEVEHVLATQTLKQGRAKTMKIEVQGKAAPGITAKDIVLAIIGKTGSAGGTGHVVEFCGEAIRDLSMEGRMTLCNMAIEMGAKAGLVAPDETTFNYVKGRLHAPKGKDFDDAVAYWKTLQTDEGATFDTVVTLQAEEISPQVTWGTNPGQVISVNDNIPDPASFADPVERASAEKALAYMGLKPGIPLTEVAIDKVFIGSCTNSRIEDLRAAAEIAKGRKVAPGVQALVVPGSGPVKAQAEAEGLDKIFIEAGFEWRLPGCSMCLAMNNDRLNPGERCASTSNRNFEGRQGRGGRTHLVSPAMAAAAAVTGHFADIRNIK
B7: leuC V110A (protein)
chain: MAKTLYEKLFDAHVVYEAENETPLLYIDRHLVHEVTSPQAFDGLRAHGRPVRQPGKTFATMDHNVSTQTKDINACGEMARIQMQELIKNCKEFGVELYDLNHPYQGIVHAMGPEQGVTLPGMTIVCGDSHTATHGAFGALAFGIGTSEVEHVLATQTLKQGRAKTMKIEVQGKAAPGITAKDIVLAIIGKTGSAGGTGHVVEFCGEAIRDLSMEGRMTLCNMAIEMGAKAGLVAPDETTFNYVKGRLHAPKGKDFDDAVAYWKTLQTDEGATFDTVVTLQAEEISPQVTWGTNPGQVISVNDNIPDPASFADPVERASAEKALAYMGLKPGIPLTEVAIDKVFIGSCTNSRIEDLRAAAEIAKGRKVAPGVQALVVPGSGPVKAQAEAEGLDKIFIEAGFEWRLPGCSMCLAMNNDRLNPGERCASTSNRNFEGRQGRGGRTHLVSPAMAAAAAVTGHFADIRNIK
B8: leuC V110Q (protein)
chain: MAKTLYEKLFDAHVVYEAENETPLLYIDRHLVHEVTSPQAFDGLRAHGRPVRQPGKTFATMDHNVSTQTKDINACGEMARIQMQELIKNCKEFGVELYDLNHPYQGIVHQMGPEQGVTLPGMTIVCGDSHTATHGAFGALAFGIGTSEVEHVLATQTLKQGRAKTMKIEVQGKAAPGITAKDIVLAIIGKTGSAGGTGHVVEFCGEAIRDLSMEGRMTLCNMAIEMGAKAGLVAPDETTFNYVKGRLHAPKGKDFDDAVAYWKTLQTDEGATFDTVVTLQAEEISPQVTWGTNPGQVISVNDNIPDPASFADPVERASAEKALAYMGLKPGIPLTEVAIDKVFIGSCTNSRIEDLRAAAEIAKGRKVAPGVQALVVPGSGPVKAQAEAEGLDKIFIEAGFEWRLPGCSMCLAMNNDRLNPGERCASTSNRNFEGRQGRGGRTHLVSPAMAAAAAVTGHFADIRNIK
B9: leuC M111A (protein)
chain: MAKTLYEKLFDAHVVYEAENETPLLYIDRHLVHEVTSPQAFDGLRAHGRPVRQPGKTFATMDHNVSTQTKDINACGEMARIQMQELIKNCKEFGVELYDLNHPYQGIVHVAGPEQGVTLPGMTIVCGDSHTATHGAFGALAFGIGTSEVEHVLATQTLKQGRAKTMKIEVQGKAAPGITAKDIVLAIIGKTGSAGGTGHVVEFCGEAIRDLSMEGRMTLCNMAIEMGAKAGLVAPDETTFNYVKGRLHAPKGKDFDDAVAYWKTLQTDEGATFDTVVTLQAEEISPQVTWGTNPGQVISVNDNIPDPASFADPVERASAEKALAYMGLKPGIPLTEVAIDKVFIGSCTNSRIEDLRAAAEIAKGRKVAPGVQALVVPGSGPVKAQAEAEGLDKIFIEAGFEWRLPGCSMCLAMNNDRLNPGERCASTSNRNFEGRQGRGGRTHLVSPAMAAAAAVTGHFADIRNIK
B10: leuC M111W (protein)
chain: MAKTLYEKLFDAHVVYEAENETPLLYIDRHLVHEVTSPQAFDGLRAHGRPVRQPGKTFATMDHNVSTQTKDINACGEMARIQMQELIKNCKEFGVELYDLNHPYQGIVHVWGPEQGVTLPGMTIVCGDSHTATHGAFGALAFGIGTSEVEHVLATQTLKQGRAKTMKIEVQGKAAPGITAKDIVLAIIGKTGSAGGTGHVVEFCGEAIRDLSMEGRMTLCNMAIEMGAKAGLVAPDETTFNYVKGRLHAPKGKDFDDAVAYWKTLQTDEGATFDTVVTLQAEEISPQVTWGTNPGQVISVNDNIPDPASFADPVERASAEKALAYMGLKPGIPLTEVAIDKVFIGSCTNSRIEDLRAAAEIAKGRKVAPGVQALVVPGSGPVKAQAEAEGLDKIFIEAGFEWRLPGCSMCLAMNNDRLNPGERCASTSNRNFEGRQGRGGRTHLVSPAMAAAAAVTGHFADIRNIK
B11: leuC M111Q (protein)
chain: MAKTLYEKLFDAHVVYEAENETPLLYIDRHLVHEVTSPQAFDGLRAHGRPVRQPGKTFATMDHNVSTQTKDINACGEMARIQMQELIKNCKEFGVELYDLNHPYQGIVHVQGPEQGVTLPGMTIVCGDSHTATHGAFGALAFGIGTSEVEHVLATQTLKQGRAKTMKIEVQGKAAPGITAKDIVLAIIGKTGSAGGTGHVVEFCGEAIRDLSMEGRMTLCNMAIEMGAKAGLVAPDETTFNYVKGRLHAPKGKDFDDAVAYWKTLQTDEGATFDTVVTLQAEEISPQVTWGTNPGQVISVNDNIPDPASFADPVERASAEKALAYMGLKPGIPLTEVAIDKVFIGSCTNSRIEDLRAAAEIAKGRKVAPGVQALVVPGSGPVKAQAEAEGLDKIFIEAGFEWRLPGCSMCLAMNNDRLNPGERCASTSNRNFEGRQGRGGRTHLVSPAMAAAAAVTGHFADIRNIK

Target: Escherichia coli (laboratory strain)
Assay: barcode share on antibiotic plates over drug-free plates; higher = less susceptible
Settings: antibiotic: carbenicillin; 2× MIC (3.1 µg/mL)
Protocol: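 A pool of E. coli strains, each edited to carry one amino-acid change in an essential protein, was grown for 48 h on minimal glucose agar with or without antibiotic; strain barcodes were sequenced; mean of two replicates.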

Protein | fold change of barcode share
B1 | 0.446 ± 0.12
B2 | 0.518 ± 0.036
B3 | 0.962 ± 0.48
B4 | 0.914 ± 0.25
B5 | 1.72 ± 0.87
B6 | 1.49 ± 0.62
B7 | 0.792 ± 0.68
B8 | 1.78 ± 1.4
B9 | 0.563 ± 0.14
B10 | 0.338 ± 0.088
B11 | 1.9 ± 1.3

Same assay, conditions: antibiotic: gentamicin; 2× MIC (MIC 0.45 µg/mL)

Protein | fold change of barcode share
B1 | < 0.00947
B2 | 0.0118 ± 0.0022
B3 | 0.0247 ± 0.0056
B4 | 0.0295 ± 0.014
B5 | 0.0148 ± 0.0041
B6 | 0.0818 ± 0.089
B9 | < 0.0113
B10 | < 0.0153
B11 | < 0.0144
